Experimental data published in the antibiotic and cytotoxicity screens of Wong et al. (2023).
This is one part of the list.

What follows are compounds tested on HSkMC (human skeletal muscle cells) (assay: cytotoxicity call (relative viability < 0.9)). Details: 10 µM.

Compound | cytotoxicity call
COc1ccc(CNC(=O)C[C@H]2C[C@@H]3c4cc(NC(=O)NC5CCCC5)ccc4O[C@@H]3[C@@H](CO)O2)cc1 | inactive
C[C@H](CO)N1C[C@H](C)[C@@H](CN(C)S(=O)(=O)c2ccccc2C#N)OCc2cnnn2CCCC1=O | inactive
C[C@@H]1CCCCO[C@H](CN(C)Cc2ccc(C(=O)O)cc2)[C@@H](C)CN([C@H](C)CO)C(=O)c2cc(NS(=O)(=O)c3ccc(F)cc3)ccc2O1 | inactive
COc1ccc(S(=O)(=O)Nc2cccc3c2O[C@H](CN(C)Cc2ccc(Cl)c(Cl)c2)[C@@H](C)CN([C@H](C)CO)C3=O)cc1 | inactive
C[C@@H]1CN([C@H](C)CO)C(=O)c2cc(NC(=O)Nc3ccc4c(c3)OCO4)ccc2O[C@@H](C)CCCCO[C@H]1CN(C)Cc1ccccc1 | inactive
O=C(C[C@H]1CC[C@@H](NC(=O)CN2CCOCC2)[C@@H](CO)O1)NCCc1ccccc1 | inactive
C[C@@H]1CN([C@@H](C)CO)C(=O)c2cc(C3=CCCCC3)cnc2O[C@@H]1CN(C)S(=O)(=O)c1cn(C)cn1 | inactive
C[C@H]1CN([C@@H](C)CO)C(=O)c2cccc(NC(=O)c3ccc(-c4nccs4)cc3)c2O[C@H]1CN(C)Cc1ccc(C(F)(F)F)cc1 | inactive
O=C(O)C=Cc1ccc(O)c(O)c1 | inactive
C[C@H](CO)N1C[C@H](C)[C@H](CN(C)S(=O)(=O)c2ccccc2)Oc2ccc(NC(=O)C3CC3)cc2CC1=O | inactive
C[C@H](CO)N1C[C@H](C)[C@@H](CN(C)Cc2ccc(Cl)c(Cl)c2)Oc2ccc(NC(=O)Cn3cnnn3)cc2C1=O | inactive
COCCNC(=O)C[C@@H]1CC[C@@H]2[C@H](COC[C@H](O)CN2C(=O)Nc2ccc3c(c2)OCO3)O1 | inactive
O=C(Cn1cc(COc2ccc3ccccc3c2)nn1)NS(=O)(=O)c1ccccc1OC(F)(F)F | inactive
Cc1noc(C)c1NC(=O)Nc1ccc2c(c1)C(=O)N([C@@H](C)CO)C[C@H](C)[C@H](CN(C)C(=O)Nc1ccc(F)cc1)OCCCC[C@H](C)O2 | inactive
C[C@H](CO)N1C[C@H](C)[C@H](CN(C)C(=O)CCC(F)(F)F)OCCCC[C@H](C)Oc2ccc(NS(=O)(=O)c3ccccc3)cc2C1=O | inactive
C[C@@H]1CN([C@H](C)CO)C(=O)Cc2cc(NC(=O)CCC(F)(F)F)ccc2O[C@@H]1CN(C)C(=O)Nc1cccc2ccccc12 | inactive
C[C@@H]1CN([C@H](C)CO)C(=O)Cc2cc(NC(=O)C3CC3)ccc2O[C@@H]1CN(C)C(=O)NC1CCCCC1 | inactive
C[C@@H]1CCCCO[C@@H](CN(C)Cc2ccccc2)[C@@H](C)CN([C@@H](C)CO)C(=O)c2cc(NC(=O)CCC(F)(F)F)ccc2O1 | inactive
COc1ccc(S(=O)(=O)N(C)C[C@@H]2Oc3c(NS(=O)(=O)c4ccc(F)cc4)cccc3C(=O)N([C@@H](C)CO)C[C@@H]2C)cc1 | inactive
Cc1noc(C)c1S(=O)(=O)N(C)C[C@@H]1Oc2ccc(NC(=O)NC(C)C)cc2CC(=O)N([C@@H](C)CO)C[C@@H]1C | inactive
C[C@@H]1CN([C@@H](C)CO)C(=O)Cc2cc(NC(=O)C3CCCCC3)ccc2O[C@@H]1CN(C)S(=O)(=O)c1cn(C)cn1 | inactive
Cc1noc(C)c1NC(=O)Nc1cccc2c1O[C@@H](CN(C)Cc1ccc(Oc3ccccc3)cc1)[C@@H](C)CN([C@@H](C)CO)C2=O | inactive
Cc1noc(C)c1NC(=O)N(C)C[C@@H]1Oc2c(NC(=O)c3ccncc3)cccc2C(=O)N([C@H](C)CO)C[C@H]1C | inactive
Cc1noc(C)c1NC(=O)N(C)C[C@H]1Oc2ncc(C#CCC(C)C)cc2C(=O)N([C@@H](C)CO)C[C@@H]1C | inactive
C[C@H]1CN([C@@H](C)CO)S(=O)(=O)c2ccc(-c3ccc(C(=O)N(C)C)cc3)cc2O[C@@H]1CN(C)C(=O)C1CCC1 | inactive
C[C@H](CO)N1C[C@H](C)[C@@H](CN(C)CC2CC2)OCCCC[C@H](C)Oc2ccc(NC(=O)Nc3ccc(C(F)(F)F)cc3)cc2C1=O | inactive
Cl.NC(COP(=O)(O)O)C(=O)O (centres undefined) | inactive
O=C(C[C@H]1C[C@H]2c3cc(NC(=O)Nc4ccc(C(F)(F)F)cc4)ccc3O[C@H]2[C@@H](CO)O1)NC1CCCCC1 | inactive
O=C(C[C@H]1CC[C@@H]2[C@H](COC[C@H](O)CN2S(=O)(=O)c2ccc(F)cc2)O1)N[C@@H]1CCN(Cc2ccccc2)C1 | inactive
